Test results: the supplement of paper PMC9588766
Where a name gives a salt, the structure may show the parent alone. Whole data set: some 1,900 compounds, median “cell viability of compound + 1 nM pemigatinib relative to pemigatinib-only (DMSO) wells” near 0.95, cut for the lowest 2% near 0.22. The list shows a part of the results.

The compounds below were run on PDC-DUC18828 (assay: cell viability of compound + 1 nM pemigatinib relative to pemigatinib-only (DMSO) wells (fraction); PDC-DUC18828 is a patient-derived cholangiocarcinoma cell line; higher = less growth inhibition). Settings: first compound 1 µM; pemigatinib concentration 1 nM; 72 h.
Method: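 Selleck Bioactive library screen in the patient-derived FGFR2 fusion-positive ICC cell line PDC-DUC18828 (500 cells/well). Each compound was tested at 1 uM with 1 nM pemigatinib, in triplicate, for 72 h. Viability was read by CellTiter-Glo and normalised to plate DMSO controls. Value is the paper's averaged normalised viability.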

SMILES	cell viability
Cc1cc(C)c(CNC(=O)c2cc(-c3ccc(N4CCN(C)CC4)nc3)cc3c2c(C)cn3C(C)C)c(=O)[nH]1 + CCN1C(=O)N(c2c(F)c(OC)cc(OC)c2F)Cc2cnc3[nH]c(CN4CCOCC4)cc3c21 [pemigatinib]	0.972
Cc1ccc(-c2c(-c3nn(C)c4ncnc(N5CC[C@H](N6CCCCC6)C5)c34)cnn2C)cc1 + CCN1C(=O)N(c2c(F)c(OC)cc(OC)c2F)Cc2cnc3[nH]c(CN4CCOCC4)cc3c21 [pemigatinib]	0.866
O=C1OC(CN2CCOCC2)CN1/N=C/c1ccc([N+](=O)[O-])o1 (stereo unspecified) [Furaltadone HCl] + CCN1C(=O)N(c2c(F)c(OC)cc(OC)c2F)Cc2cnc3[nH]c(CN4CCOCC4)cc3c21 [pemigatinib]	1.09
C[C@H](CCC(=O)NCCS(=O)(=O)O)[C@H]1CC[C@H]2[C@@H]3[C@@H](O)C[C@@H]4C[C@H](O)CC[C@]4(C)[C@H]3CC[C@]12C [Sodium Tauroursodeoxycholate (TUDC)] + CCN1C(=O)N(c2c(F)c(OC)cc(OC)c2F)Cc2cnc3[nH]c(CN4CCOCC4)cc3c21 [pemigatinib]	0.951
c1cn2cc(-c3ccc4cn[nH]c4c3)nc(Nc3ccc(N4CCOCC4)cc3)c2n1 + CCN1C(=O)N(c2c(F)c(OC)cc(OC)c2F)Cc2cnc3[nH]c(CN4CCOCC4)cc3c21 [pemigatinib]	0.78
O=C1CCC(N2C(=O)c3ccccc3C2=O)C(=O)N1 (stereo unspecified) [Thalidomide] + CCN1C(=O)N(c2c(F)c(OC)cc(OC)c2F)Cc2cnc3[nH]c(CN4CCOCC4)cc3c21 [pemigatinib]	1.02
CC1(C)S[C@@H]2[C@H](NC(=O)Cc3ccccc3)C(=O)N2[C@H]1C(=O)O [Penicillin G Sodium] + CCN1C(=O)N(c2c(F)c(OC)cc(OC)c2F)Cc2cnc3[nH]c(CN4CCOCC4)cc3c21 [pemigatinib]	0.921
CCCCc1nc(Cl)c(CO)n1Cc1ccc(-c2ccccc2-c2nnn[nH]2)cc1 [Losartan Potassium (DuP 753)] + CCN1C(=O)N(c2c(F)c(OC)cc(OC)c2F)Cc2cnc3[nH]c(CN4CCOCC4)cc3c21 [pemigatinib]	1.01
O=C(Nc1cccc2cccnc12)c1ccc(N2C(=O)[C@@H]3[C@H](C2=O)[C@@H]2C=C[C@H]3C2)cc1 [IWR-1-endo] + CCN1C(=O)N(c2c(F)c(OC)cc(OC)c2F)Cc2cnc3[nH]c(CN4CCOCC4)cc3c21 [pemigatinib]	0.713
C=CCn1c(=O)c2cnc(Nc3ccc(N4CCN(C)CC4)cc3)nc2n1-c1cccc(C(C)(C)O)n1 + CCN1C(=O)N(c2c(F)c(OC)cc(OC)c2F)Cc2cnc3[nH]c(CN4CCOCC4)cc3c21 [pemigatinib]	0.359
Clc1ccc(C(Cn2ccnc2)OCc2csc3c(Cl)cccc23)c(Cl)c1 (stereo unspecified) [Sertaconazole nitrate] + CCN1C(=O)N(c2c(F)c(OC)cc(OC)c2F)Cc2cnc3[nH]c(CN4CCOCC4)cc3c21 [pemigatinib]	0.798
CN1CCC(COc2cnc(-c3cccc(Cn4nc(-c5cccc(C#N)c5)ccc4=O)c3)nc2)CC1 + CCN1C(=O)N(c2c(F)c(OC)cc(OC)c2F)Cc2cnc3[nH]c(CN4CCOCC4)cc3c21 [pemigatinib]	1
COc1cc(CCC(C)=O)ccc1O [Vanillylacetone] + CCN1C(=O)N(c2c(F)c(OC)cc(OC)c2F)Cc2cnc3[nH]c(CN4CCOCC4)cc3c21 [pemigatinib]	0.921
O=NN(CCCl)C(=O)NC1CCCCC1 [Lomustine] + CCN1C(=O)N(c2c(F)c(OC)cc(OC)c2F)Cc2cnc3[nH]c(CN4CCOCC4)cc3c21 [pemigatinib]	0.922
COc1cnc(NS(=O)(=O)c2ccc(N)cc2)nc1 [Sulfameter] + CCN1C(=O)N(c2c(F)c(OC)cc(OC)c2F)Cc2cnc3[nH]c(CN4CCOCC4)cc3c21 [pemigatinib]	1.04
CCCCCCCCc1ccc(CCC(N)(CO)CO)cc1 [Fingolimod (FTY720) HCl] + CCN1C(=O)N(c2c(F)c(OC)cc(OC)c2F)Cc2cnc3[nH]c(CN4CCOCC4)cc3c21 [pemigatinib]	0.908
C[C@]12CC[C@@H]3c4ccc(O)cc4CC[C@H]3[C@@H]1CCC2=O [Estrone] + CCN1C(=O)N(c2c(F)c(OC)cc(OC)c2F)Cc2cnc3[nH]c(CN4CCOCC4)cc3c21 [pemigatinib]	1.01
COc1cc(C(=O)NC2CCCNC2)cc(OC)c1OC (stereo unspecified) [Troxipide] + CCN1C(=O)N(c2c(F)c(OC)cc(OC)c2F)Cc2cnc3[nH]c(CN4CCOCC4)cc3c21 [pemigatinib]	1.05

SMILES	cell viability
CN1CC2c3ccccc3Oc3ccc(Cl)cc3C2C1 (stereo unspecified) [Asenapine] + CCN1C(=O)N(c2c(F)c(OC)cc(OC)c2F)Cc2cnc3[nH]c(CN4CCOCC4)cc3c21 [pemigatinib]	0.984
CCCCNc1ncc2c(-c3ccc(CN4CCN(C)CC4)cc3)cn([C@H]3CC[C@H](O)CC3)c2n1 + CCN1C(=O)N(c2c(F)c(OC)cc(OC)c2F)Cc2cnc3[nH]c(CN4CCOCC4)cc3c21 [pemigatinib]	0.587
COC1=C2C[C@@H](C)C[C@H](OC)[C@H](O)[C@@H](C)/C=C(\C)[C@H](OC(N)=O)[C@@H](OC)/C=C\C=C(/C)C(=O)NC(=CC1=O)C2=O [Geldanamycin] + CCN1C(=O)N(c2c(F)c(OC)cc(OC)c2F)Cc2cnc3[nH]c(CN4CCOCC4)cc3c21 [pemigatinib]	0.299
CNC(=O)Nc1ccc(-c2nc(N3CC4CCC(C3)O4)c3cnn(C4CCC5(CC4)OCCO5)c3n2)cc1 + CCN1C(=O)N(c2c(F)c(OC)cc(OC)c2F)Cc2cnc3[nH]c(CN4CCOCC4)cc3c21 [pemigatinib]	0.232
CCC(CC)CC1(C(=O)Nc2ccccc2SC(=O)C(C)C)CCCCC1 + CCN1C(=O)N(c2c(F)c(OC)cc(OC)c2F)Cc2cnc3[nH]c(CN4CCOCC4)cc3c21 [pemigatinib]	0.972
Cn1cc(-c2ccc3nnc(C(F)(F)c4ccc5ncccc5c4)n3n2)cn1 + CCN1C(=O)N(c2c(F)c(OC)cc(OC)c2F)Cc2cnc3[nH]c(CN4CCOCC4)cc3c21 [pemigatinib]	1.01
c1ccc2[nH]c(-c3cscn3)nc2c1 [Thiabendazole] + CCN1C(=O)N(c2c(F)c(OC)cc(OC)c2F)Cc2cnc3[nH]c(CN4CCOCC4)cc3c21 [pemigatinib]	0.973
CCCCCCCN(CC)CCCC(O)c1ccc(NS(C)(=O)=O)cc1 (stereo unspecified) [Ibutilide Fumarate] + CCN1C(=O)N(c2c(F)c(OC)cc(OC)c2F)Cc2cnc3[nH]c(CN4CCOCC4)cc3c21 [pemigatinib]	1.03
Cc1nnc(C(C)C)n1C1C[C@H]2CC[C@@H](C1)N2CC[C@H](NC(=O)C1CCC(F)(F)CC1)c1ccccc1 (stereo in doubt) [Maraviroc] + CCN1C(=O)N(c2c(F)c(OC)cc(OC)c2F)Cc2cnc3[nH]c(CN4CCOCC4)cc3c21 [pemigatinib]	0.999
Cn1c(=O)cc(N2CCC[C@@H](N)C2)n(Cc2ccccc2C#N)c1=O [Alogliptin] + CCN1C(=O)N(c2c(F)c(OC)cc(OC)c2F)Cc2cnc3[nH]c(CN4CCOCC4)cc3c21 [pemigatinib]	1.01
CC1(C)S[C@@H]2[C@H](NC(=O)[C@H](NC(=O)N3CCN(S(C)(=O)=O)C3=O)c3ccccc3)C(=O)N2[C@H]1C(=O)O [Mezlocillin Sodium] + CCN1C(=O)N(c2c(F)c(OC)cc(OC)c2F)Cc2cnc3[nH]c(CN4CCOCC4)cc3c21 [pemigatinib]	0.999
COc1cc(Nc2ncc(F)c(Nc3ccc4c(n3)N(COP(=O)(O)O)C(=O)C(C)(C)O4)n2)cc(OC)c1OC [Fostamatinib (R788)] + CCN1C(=O)N(c2c(F)c(OC)cc(OC)c2F)Cc2cnc3[nH]c(CN4CCOCC4)cc3c21 [pemigatinib]	0.794
COc1ccc(-c2cc(=O)c3c(O)cc(O[C@@H]4O[C@H](CO[C@@H]5O[C@@H](C)[C@H](O)[C@@H](O)[C@H]5O)[C@@H](O)[C@H](O)[C@H]4O)cc3o2)cc1O [Diosmin] + CCN1C(=O)N(c2c(F)c(OC)cc(OC)c2F)Cc2cnc3[nH]c(CN4CCOCC4)cc3c21 [pemigatinib]	0.966
O=S(=O)(O)CCS [Mesna] + CCN1C(=O)N(c2c(F)c(OC)cc(OC)c2F)Cc2cnc3[nH]c(CN4CCOCC4)cc3c21 [pemigatinib]	0.986
CCCS(=O)(=O)Nc1ccc(F)c(C(=O)c2c[nH]c3ncc(-c4ccc(Cl)cc4)cc23)c1F [Vemurafenib (PLX4032, RG7204)] + CCN1C(=O)N(c2c(F)c(OC)cc(OC)c2F)Cc2cnc3[nH]c(CN4CCOCC4)cc3c21 [pemigatinib]	0.955
Cc1cccc(-c2[nH]c(CNc3ccccc3F)nc2-c2ccc3ncnn3c2)n1 + CCN1C(=O)N(c2c(F)c(OC)cc(OC)c2F)Cc2cnc3[nH]c(CN4CCOCC4)cc3c21 [pemigatinib]	0.947
O=C(Nc1c(Cl)cncc1Cl)c1ccc(OC(F)F)c(OCC2CC2)c1 [Roflumilast] + CCN1C(=O)N(c2c(F)c(OC)cc(OC)c2F)Cc2cnc3[nH]c(CN4CCOCC4)cc3c21 [pemigatinib]	0.972
CCOC(=O)OC(C)OC1=C(C(=O)Nc2ccccn2)N(C)S(=O)(=O)c2ccccc21 (stereo unspecified) [Ampiroxicam] + CCN1C(=O)N(c2c(F)c(OC)cc(OC)c2F)Cc2cnc3[nH]c(CN4CCOCC4)cc3c21 [pemigatinib]	0.914
